Some of the results follow.
What was measured:
HSkMC = human skeletal muscle cells; assay: cytotoxicity call (relative viability < 0.9); conditions: 10 µM
HepG2 = assay: cytotoxicity call (relative viability < 0.9); conditions: 10 µM
S. aureus RN4220 = assay: growth inhibition call (relative growth <= 0.2); conditions: 50 µM

Row | Structure (SMILES) | cytotoxicity call (HSkMC) | cytotoxicity call (HepG2) | growth inhibition call (S. aureus RN4220)
1 | C[C@@]1(O)CCOC(=O)C1 | inactive | inactive | inactive
2 | CC(C)NC(=O)Nc1ccc2c(c1)C(=O)N([C@@H](C)CO)C[C@H](C)[C@H](CN(C)S(=O)(=O)c1cn(C)cn1)OCCCC[C@@H](C)O2 | inactive | inactive | inactive
3 | CC(C)(C)c1n[nH]c(C(C)(C)C)c1Cc1c(F)cccc1Cl | inactive | inactive | inactive
4 | C[C@@H]1CCCCO[C@@H](CN(C)C(=O)Nc2ccccc2)[C@@H](C)CN([C@H](C)CO)C(=O)c2cc(NC(=O)C3CCCCC3)ccc2O1 | inactive | inactive | inactive
5 | C[C@@H]1CN([C@@H](C)CO)C(=O)Cc2cc(NC(=O)CCCCCC(=O)Nc3ccccc3N)ccc2O[C@@H]1CN(C)Cc1ccc(C(F)(F)F)cc1 | active | inactive | inactive
6 | COc1ccc(CN(C)C[C@H]2Oc3ccc(NC(=O)Nc4ccc(C(F)(F)F)cc4)cc3CC(=O)N([C@@H](C)CO)C[C@@H]2C)cc1 | inactive | active | inactive
7 | COc1cccc(NC(=O)N(C)C[C@H]2Oc3ncc(C#Cc4cccnc4)cc3C(=O)N([C@H](C)CO)C[C@@H]2C)c1 | inactive | inactive | inactive
8 | CO[C@H](CN(C)C(=O)c1ccc2c(c1)OCO2)[C@@H](C)CN([C@H](C)CO)S(=O)(=O)c1ccc(F)cc1 | inactive | inactive | inactive
9 | C[C@@H]1CCCCO[C@H](CN(C)Cc2ccc(C(=O)O)cc2)[C@H](C)CN([C@@H](C)CO)C(=O)c2cc(NC(=O)Cc3ccccc3)ccc2O1 | inactive | inactive | inactive
10 | CC(=O)Oc1cc2c(s1)CCN(C(C(=O)C1CC1)c1ccccc1F)C2 (stereo not given) | inactive | inactive | inactive
11 | C[C@@H]1CN([C@H](C)CO)C(=O)c2cc(C#C[C@@H](C)O)cnc2O[C@H]1CN(C)C(=O)Nc1ccc(C(F)(F)F)cc1 | inactive | inactive | inactive
12 | COc1cc(OC)cc(C(=O)Nc2nc(-c3ccc4c(c3)CCN4C(=O)CN3CCOCC3)cs2)c1 | inactive | inactive | inactive
13 | C[C@@H]1CCCCO[C@@H](CN(C)C(=O)c2ccccc2)[C@H](C)CN([C@@H](C)CO)C(=O)c2cc(NC(=O)C3CCCCC3)ccc2O1 | inactive | inactive | inactive
14 | CN(CCO)S(=O)(=O)c1ccc2c(c1)C(=NO)c1cc(S(=O)(=O)N(C)CCO)ccc1-2 | inactive | inactive | inactive
15 | C[C@@H]1CN([C@H](C)CO)C(=O)Cc2cc(NS(=O)(=O)c3ccccc3)ccc2O[C@@H]1CN(C)S(=O)(=O)c1ccccc1 | inactive | inactive | inactive
16 | O=C(NOCCO)c1cc(CN2OCCCC2=O)c(F)c(F)c1Nc1ccc(I)cc1F | inactive | inactive | inactive
17 | COc1ccc(CN(C)C[C@@H]2OCCCC[C@H](C)Oc3ccc(NC(=O)Cc4ccccc4)cc3C(=O)N([C@@H](C)CO)C[C@@H]2C)cc1 | inactive | inactive | inactive
18 | COc1ccc(CN(C)C[C@H]2Oc3ccc(NC(=O)Nc4ccc(C(F)(F)F)cc4)cc3CC(=O)N([C@H](C)CO)C[C@H]2C)cc1 | active | active | inactive
19 | COc1ccc(S(=O)(=O)N(C)C[C@@H]2Oc3ccc(NC(=O)Nc4cccc5ccccc45)cc3C(=O)N([C@@H](C)CO)C[C@@H]2C)cc1 | inactive | inactive | inactive
20 | COc1cccc(C#Cc2ccc3c(c2)O[C@H](CN(C)C(=O)CN2CCOCC2)[C@@H](C)CN([C@H](C)CO)S3(=O)=O)c1 | inactive | inactive | inactive
21 | CC(C)NC(=O)N(C)C[C@H]1Oc2cc(-c3ccccc3F)ccc2S(=O)(=O)N([C@@H](C)CO)C[C@@H]1C | inactive | inactive | inactive
22 | C[C@@H]1CN([C@@H](C)CO)C(=O)c2cc(NC(=O)Cc3ccccc3)ccc2O[C@@H](C)CCCCO[C@H]1CN(C)C(=O)c1ccccc1 | inactive | inactive | inactive
23 | CO[C@@H]1CN(C)C(=O)c2ccc(NS(=O)(=O)CC(F)(F)F)cc2OC[C@H](C)N(Cc2nccs2)C[C@H]1C | inactive | inactive | inactive
24 | C[C@@H]1CN([C@@H](C)CO)C(=O)c2cccc(NC(=O)c3ccncc3)c2O[C@H]1CN(C)S(=O)(=O)c1ccc(F)cc1 | inactive | inactive | inactive
25 | COc1ccc(NC(=O)N(C)C[C@@H]2Oc3ncc(C#CC(C)C)cc3C(=O)N([C@H](C)CO)C[C@H]2C)cc1 | inactive | inactive | inactive
26 | CCCNC(=O)c1cc2c(c(-c3cccc(-c4ccc(F)cc4)c3)n1)[C@H](CCO)N([S@@](=O)C(C)(C)C)C2 | inactive | inactive | inactive
27 | CC(C)(C)OC(=O)CC[C@]12N=C(c3ccc(OCCCO)cc3)O[C@H]1c1ccccc1N(Cc1ccccc1)C2=O | inactive | inactive | inactive
28 | COc1cccc(OC)c1C(=O)O[C@H]1[C@@H]2OC(=O)[C@H](Cc3cccc(Br)c3)C/C=C/C[C@@H](Cc3cccc(Br)c3)C(=O)O[C@H]2[C@@H](OC)O[C@@H]1CO | inactive | inactive | inactive

Row | Structure (SMILES) | cytotoxicity call (HSkMC) | cytotoxicity call (HepG2) | growth inhibition call (S. aureus RN4220)
29 | C[C@H]1CCCCO[C@H](CN(C)C(=O)Nc2cccc3ccccc23)[C@@H](C)CN([C@@H](C)CO)C(=O)c2cc(NS(=O)(=O)c3ccccc3)ccc2O1 | inactive | inactive | inactive
30 | OC(c1ccc(-c2ccc(CN3CCN(Cc4ccncc4)CC3)cc2)c(F)c1)(C(F)(F)F)C(F)(F)F | inactive | inactive | inactive
31 | C[C@@H]1CN([C@@H](C)CO)C(=O)Cc2cc(NC(=O)Cn3cnnn3)ccc2O[C@@H]1CN(C)C(=O)Nc1ccccc1 | inactive | inactive | inactive
32 | C[C@@H]1CN([C@H](C)CO)C(=O)c2cc(C#CCN(C)C)cnc2O[C@@H]1CN(C)Cc1ccc(C(=O)O)cc1 | inactive | inactive | inactive
33 | O=C(C[C@H]1C[C@@H]2c3cc(NC(=O)c4ccc5c(c4)OCO5)ccc3O[C@@H]2[C@@H](CO)O1)NCC(F)(F)F | inactive | inactive | inactive
34 | C[C@H](CO)N1C[C@H](C)[C@@H](CN(C)S(=O)(=O)c2cn(C)cn2)OCc2cn(nn2)CCCC1=O | inactive | inactive | inactive
35 | CN(CC(=O)O)[C@H]1CCS(=O)(=O)C1 | inactive | inactive | inactive
36 | O=C(Cc1ccncc1)Nc1ccc2c(c1)[C@@H]1C[C@H](CC(=O)N3CCc4ccccc4C3)O[C@@H](CO)[C@@H]1O2 | inactive | inactive | inactive
37 | COc1ccc(S(=O)(=O)N(C)C[C@H]2Oc3ccc(NC(=O)NC(C)C)cc3C(=O)N([C@H](C)CO)C[C@H]2C)cc1 | inactive | inactive | inactive
38 | C[C@H](N)c1ccc(Cl)cc1 | inactive | inactive | inactive
39 | N[C@@H](CSCCCO)C(=O)O | inactive | inactive | inactive
40 | Cc1noc(C)c1S(=O)(=O)N(C)C[C@@H]1Oc2ccc(NC(=O)CCC(F)(F)F)cc2CC(=O)N([C@@H](C)CO)C[C@H]1C | inactive | inactive | inactive
41 | C[C@H](CO)N1C[C@H](C)[C@H](CN(C)CC2CC2)OCCCC[C@H](C)Oc2ccc(NC(=O)C3CCCCC3)cc2C1=O | inactive | inactive | inactive
42 | C[C@H]1CN([C@@H](C)CO)C(=O)c2cc(NS(=O)(=O)c3cccs3)ccc2O[C@H]1CN(C)CC1CC1 | inactive | inactive | inactive
43 | C=CCOC(=O)[C@@H]1[C@H]2C(=O)O[C@H](c3ccccc3)[C@H](c3ccccc3)N2[C@H](c2ccc(OCCOC(=O)[C@H]3C[C@H]4C(=O)N[C@@H](CC(C)C)C(=O)N4[C@H]3c3ccc(O)cc3)cc2)[C@@]12C(=O)Nc1ccc(I)cc12 | inactive | inactive | inactive
44 | C[C@@H]1CN([C@H](C)CO)C(=O)c2cc(NC(=O)Nc3ccccc3)ccc2O[C@@H](C)CCCCO[C@@H]1CN(C)C(=O)CCC(F)(F)F | inactive | inactive | inactive
45 | Cc1cccn2c(CN)cnc12 | inactive | inactive | inactive
46 | COc1ccc(NC(=O)N2C[C@@H](O)COC[C@H]3O[C@@H](CC(=O)NCc4ccccc4OC)CC[C@@H]32)cc1 | inactive | inactive | inactive
47 | C[C@@H]1CN([C@H](C)CO)C(=O)c2cccc(NC(=O)Nc3ccc(F)cc3)c2O[C@@H]1CN(C)S(=O)(=O)c1cn(C)cn1 | inactive | inactive | inactive
48 | C[C@H](CO)N1C[C@H](C)[C@@H](CN(C)S(=O)(=O)c2cccs2)OCCCC[C@H](C)Oc2ccc(NC(=O)Nc3ccccc3)cc2C1=O | inactive | inactive | inactive
49 | COc1ccc(S(=O)(=O)Nc2ccc3c(c2)C(=O)N([C@H](C)CO)C[C@@H](C)[C@@H](CN(C)C(=O)Nc2cccc4ccccc24)O3)cc1 | inactive | inactive | inactive
50 | Clc1ccc(COC(Cn2ccnc2)c2ccc(Cl)cc2Cl)cc1.O=[N+]([O-])O (stereo not given) | inactive | active | inactive
51 | COc1cccc(CN(C)C[C@H]2OCc3ccccc3-c3c(n(C)c4ccccc34)C(=O)N([C@@H](C)CO)C[C@H]2C)c1 | inactive | active | inactive
52 | CN1CCN(C(=O)C[C@H]2C[C@H]3c4cc(NC(=O)c5ccc6c(c5)OCO6)ccc4O[C@H]3[C@H](CO)O2)CC1 | inactive | inactive | inactive
53 | C[C@H](CO)N1C[C@H](C)[C@H](CN(C)Cc2ccc3c(c2)OCO3)Oc2ccc(NC(=O)Cn3cnnn3)cc2CC1=O | inactive | inactive | inactive
54 | C[C@H]1CN([C@@H](C)CO)C(=O)Cc2cc(NC(=O)C3CC3)ccc2O[C@@H]1CN(C)Cc1ccc(Oc2ccccc2)cc1 | inactive | inactive | inactive
55 | C[C@@H]1CN([C@@H](C)CO)C(=O)c2cc(NC(=O)Cc3ccccc3)ccc2O[C@@H](C)CCCCO[C@@H]1CN(C)C(=O)c1ccccc1 | inactive | inactive | inactive

— the antibiotic and cytotoxicity screens of Wong et al. (2023)
